Data: PubChem BioAssay AID1508624 (National Center for Advancing Translational Sciences (NCATS), 2021)
Out of some 48,000 compounds screened, about 120 (0.25%) were called active. Another 4% or so got no clear call; they are omitted. The call rests on the fitted dose curve; in most records, active means well fitted activation curve with a large enough effect; inconclusive means small, poorly fitted or top-dose-only effect, or another doubt; inactive means no such curve, though single readings can be large or run the other way. This is one part of the list.

Assay: Primary qHTS for Identification of Small Molecule Activators of Huntingtin-Antisense Promoter Activity; further: nearly all actives have a fitted effect of over 55% in size
Settings: HEK293 HTT-AS promoter firefly luciferase reporter, 24 h; series mostly up to 57.5 µM; activity change, positive = activation: at the top concentration
Outline: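 Quantitative HTS used concentration series of up to 57.5 uM final on HEK293 luciferase reporter cells, 24 h at 37 degrees C. Readout was Dual-Glo firefly luminescence.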

Activity change, positive = activation, inactive:
Cc1ccc(C)c(N2CCN(C(=O)c3cc(C)nc4c3c(C)nn4-c3cccc(F)c3)CC2)c1 -25.3%
Cc1ccc(C)c(N2CCN(c3ccc4cc(S(=O)(=O)N5CCC(C)CC5)ccc4n3)CC2)c1 -4.49%
CCOc1ccc(C(=O)NCCc2sc(-c3ccc(OC)c(OC)c3)nc2C)cc1 -0.146%
Cc1ccccc1OCC(=O)Nc1sc2c(c1C(=O)OC(C)C)CCCC2 9.45%
CCn1c(C(=O)NCc2ccc(OC(C)C)cc2)cc2oc3ccccc3c21 -32.3%
CCOc1ccc(-n2c(SCC(=O)N3CCC(C)CC3)nc3c([nH]c4ccccc43)c2=O)cc1 -13.2%
Cc1cccc(-n2c(=O)c3c(c4cc(C)ccc4n3C)n(CC(=O)NCC3CCCO3)c2=O)c1 (stereo not drawn) -8.29%
CCCOc1ccc(C(=O)Nc2cc3c(cc2N2CCOCC2)n(C)c(=O)n3C)cc1 -12.2%
Cc1oc(-c2cccc(Cl)c2)nc1CS(=O)(=O)CC(=O)NCc1ccccc1Cl -18.3%
Cc1ccc2c(c1)c(=O)c1ccccc1n2CCCC(=O)Nc1cc(Cl)ccc1C -18.6%
CCCCCCCCCCCCOCCO 0.0549%
COC(=O)c1ccc(C2c3c(oc4ccccc4c3=O)C(=O)N2c2nc(C)c(C(=O)OC)s2)cc1 (stereo not drawn) -7.23% [at 11.5 µM, percent change from vehicle, -100% = no light]
O=C(Nc1cc(Cl)cc(Cl)c1)c1ccc2c(c1)N(Cc1cccc(Cl)c1)C(=O)c1ccccc1S2=O (stereo not drawn) -13.7%
Cc1nn(CC(=O)O)c(=O)c2cc3cc(F)ccc3n12 -2.08%
COc1ccc2c(CNCc3cccs3)c(C(=O)O)n(Cc3ccc(C)cc3)c2c1 -15.9%
Cc1ccccc1Cn1c2ccccc2c2cnn(CC(=O)NC(C)CCc3ccccc3)c(=O)c21 (stereo not drawn) -21.7%
CCc1ccc2oc(C(=O)Nc3c(C)n(C)n(-c4ccccc4)c3=O)cc(=O)c2c1 -6.44% [at 11.5 µM, percent change from vehicle, -100% = no light]
N#Cc1ccc(C(=O)NCc2ccc3c(c2)CCN3C(=O)c2ccc(F)cc2)cc1 3.78%
CCOC(=O)c1ccc(N2C(=O)c3n[nH]c(C)c3C2c2ccccc2OC)cc1 (stereo not drawn) -31.5%
Cc1cccc(CCNc2ncnc3onc(-c4ccc(Cl)cc4)c23)c1 -41.1%
COC(=O)c1ccc(NC(=O)CN(CCc2ccccc2)S(=O)(=O)c2ccc(OC)cc2)cc1 -47.8%
Cc1cccc(Cn2nc(C)n3c(cc4cc(C)ccc43)c2=O)c1 -1.7%
Cc1nn(C)c2c1c(C(F)(F)F)cc(=O)n2CC(=O)NCCC(C)C -6.52%
Cc1cccc(-c2nc3scc(CCNS(=O)(=O)c4ccc(Oc5ccccc5)cc4)n3n2)c1 -47%
COc1ccc(-c2cc3ccc(O)c(CN4CCC(C)CC4)c3oc2=O)cc1 -14%
O=C(Nc1ccc2oc(-c3cccnc3)nc2c1)c1ccc(-c2ccccc2OC(F)(F)F)o1 -29.8%
COc1ccc(-n2nc(C(=O)Nc3cc(OC)c(OC)c(OC)c3)c(=O)n(C)c2=O)cc1 3.12%
COc1ccc(-n2nc(C(=O)N3CCN(c4ccc(F)cc4)CC3)c3c4ccccc4n(C)c3c2=O)cc1 0.214%
CC1=C(c2ccc(C)cc2)S(=O)(=O)NC1=NCCCN1CCN(c2ccccc2F)CC1 -24.2%
COc1ccc(C2CC(c3ccccc3)=NN2c2ccc(S(N)(=O)=O)cc2)cc1 (stereo not drawn) -19.2%
CN1CCN(c2c(F)cc3c(=O)c(C(=O)O)cn4c3c2SCC4)CC1 -11.3%
COc1ccc(NC(=O)Cn2c(=O)n(Cc3nc(-c4ccccc4)no3)c(=O)c3cc4c(cc32)OCO4)c(OC)c1 -3.51%
Cc1nn(CC(=O)NCc2ccc(Cl)cc2)c(=O)c2cc3sccc3n12 -22%
O=C(Nc1ccc2oc(-c3cccnc3)nc2c1)c1ccc(Br)cc1 -7.44%
Cc1ccc(CN2CCCn3nc(C(=O)NC(C)C)cc3C2=O)cc1 20.9%
CC(=O)c1ccc(NC(=O)C2Cc3ccccc3N2C(=O)c2ccccc2)cc1 (stereo not drawn) 3.53%
Cc1ccc(N2CCN(S(=O)(=O)c3cc(C(=O)Nc4cc(Cl)cc(Cl)c4)ccc3F)CC2C)cc1 (stereo not drawn) -34%
CC(=O)Nc1nonc1-c1nnc(SCC(=O)Nc2cccc(F)c2)n1-c1ccccc1 -17.4%
COC(=O)c1scc(-c2ccc(C)cc2)c1S(=O)(=O)Nc1ccc(F)cc1F -24.4%
CN(C)S(=O)(=O)c1ccc2c(c1)N(CC(=O)NCc1ccc(F)cc1)C(=O)CS2 9.03%
COc1ccc(C)cc1NC(=O)Cn1c(=O)c(C(F)(F)F)nc2ccccc21 3.77%
COc1ccc(Oc2c(C(F)(F)F)oc3c(CN4CCCC(C)C4)c(O)ccc3c2=O)cc1 (stereo not drawn) -30.7%
COc1ccccc1N1CCN(c2ccc(=O)n(CC(=O)NCc3ccc(OC(C)C)cc3)n2)CC1 -19.7%
Cc1ccc(NC(=O)Cn2cc3c(n2)CCCC3)c(Cl)c1 0.0366%
CNc1c2c(nn1C)CCCC2 -8.2%
O=C(Nc1ccc(Br)cc1)c1ccc(F)c(S(=O)(=O)N2CCCc3ccccc32)c1 -44.9%
CC(C)Cn1c(=O)c2sccc2n2c(CCCC(=O)NCCc3ccc(Cl)cc3)nnc12 -21.4%
CCc1ccc(NC(=O)CSc2nc(-c3ccccc3Cl)nc3c2Cc2c(CO)cnc(C)c2O3)cc1 10.4%
COc1ccc(OCC(=O)Nc2ccc3c(c2)nc(CCNC(=O)c2ccco2)n3C)cc1 -23.2%
CC(C)NC(=O)c1ccc(-n2c(-c3ccccc3)cc3c2CCCC3)cc1 -1.28%
COCCOc1ccc2c(c1)ncn2-c1ccc2cccc(N3CCC(N)CC3)c2n1 -3.34%
CCc1ccc2nc(N(Cc3cccnc3)C(C)=O)sc2c1 3.16%
CCOC(=O)c1ccc(CN(Cc2ccc(Cl)cc2Cl)S(=O)(=O)c2ccc(F)c(C)c2)cc1 -26.9%
COc1ccc(C2CC(=O)N(Cc3ccc(F)cc3)c3ccccc3S2)cc1OC (stereo not drawn) -15.5%
COc1ccc(OC)c2sc(N3CCN(C(=O)c4ccc5c(c4)CCCC5)CC3)nc12 -13.1%
CCC1CCc2nc3sc(C(=O)Nc4ccc(C)cc4)c(N)c3cc2C1 (stereo not drawn) -3.09%
CCCCCn1c(=O)[nH]c2cc(C(=O)NCc3ccc(Cl)cc3)ccc2c1=O -9.59%
COc1ccccc1C(=O)NCCn1cc(SCc2ccc(C)cc2)c2ccccc21 -31.5%
c1ccc(N2CCN(Cc3cccn3-c3nnc(N4CCN(C5CCCCC5)CC4)s3)CC2)cc1 -2.55%
CCc1ccccc1NS(=O)(=O)c1ccc2c(c1)CCN2C(=O)C1CC1 -14.9%
CCc1ccc(-c2nn(CC(=O)NC3CCCCC3)c3c2cnc2ccc(C)cc23)cc1 1.84%
O=C(CN1CCN(Cc2cccc(Cl)c2)C1=O)NCc1ccc(F)cc1 -15.3%
CCN(c1ccccc1C)S(=O)(=O)c1ccc(N2CCCCS2(=O)=O)cc1 -5.32%
CCOc1ccc(CCNC(=O)c2nn(-c3ccc(OC)c(Cl)c3)c(=O)c3c2c2ccccc2n3C)cc1OCC -6.17%
Cc1nn(-c2ccccc2)c(-n2cccc2)c1C(=O)NCCc1ccc(Cl)cc1 -34.4%
Cc1cc(NC(=O)COCc2cc(-c3ccc(F)cc3)on2)ccc1Br -3.77%
O=C(CCCCn1c(=O)c2ccccc2n(Cc2ccccc2Cl)c1=O)NCc1ccc2c(c1)OCO2 -16.9%
COC(=O)C1=C(C)NC(C)=C(C(=O)OCC(C)C)C1c1ccccc1[N+](=O)[O-] (stereo not drawn) -2.16%
CCOc1ccc(CCNS(=O)(=O)c2c(C)nc3scc(C)n3c2=O)cc1OCC -12.3%
CCCn1c2ccccc2c2cnn(CC(=O)N3CCN(c4ccccc4F)CC3)c(=O)c21 0.0685%
Cc1ccc(Nc2c(-c3ccc(Cl)cc3)nc3sccn23)c(C)c1 -19.5%
COc1cccc(N2CCN(C(=O)CCCn3c(=O)[nH]c4ccc(Br)cc4c3=O)CC2)c1 -47.4%
CCOc1ccc(CNC(=O)c2ccc3nc(CC)c(CC)nc3c2)cc1 14%
CC(C)Oc1cccc(C(=O)Nc2ccc3oc(-c4cccc(Cl)c4)nc3c2)c1 3.54%
Cc1ccc(C)c(NC(=O)N2CCC(CN3CCOCC3)CC2)c1 0.74%
COc1ccc(OC)c(CNS(=O)(=O)c2ccc3[nH]c4c(c3c2)CCCCC4)c1 -48.7%
O=c1ccc2cc(S(=O)(=O)NCc3ccc(Br)cc3)ccc2[nH]1 -27.4%
CCC(=O)N1CCc2cc(S(=O)(=O)NC(CC(C)C)C(=O)NCCc3cccc(C)c3)ccc21 (stereo not drawn) 3.2%
COc1cccc(NC(=O)CSCc2cc(=O)c3ccc(C)c(C)c3[nH]2)c1 -16.7%
COCCn1c2c([n+](Cc3cnccn3)c1C)C(=O)c1ccccc1C2=O -94.5%
Cn1c(=O)c2c(n3c4ccccc4nc13)NC(=O)CC2c1cccc(F)c1 (stereo not drawn) -1.76%
Cc1nn2c(=O)cc(COC(=O)c3cccc(NC(=O)COc4ccccc4Cl)c3)nc2s1 -12.4%
Cc1ccc(C(=O)c2cn(Cc3cccc(C)c3)c3nc(C)ccc3c2=O)cc1 -17.4%
COc1ccc(NC(=O)Cn2c(=O)n(-c3ccccc3)c(=O)c3c4c(sc32)CCCC4)c(OC)c1 -7.97%
Cc1ccc(NC(=O)CSc2ncc(S(=O)(=O)c3ccc(C(C)C)cc3)c(=O)[nH]2)cc1C -15.4%
CC(C)Oc1ccc(CNS(=O)(=O)c2ccc3c(c2)C(C)(C)C(=O)N3C)cc1 -15.3%
Cc1ccc(CNC(=O)c2nc(SCc3ccc(F)cc3)ncc2Cl)cc1 -23%
COc1ccc(S(=O)(=O)n2nc(C)c(S(=O)(=O)N3CCCCCC3)c2C)cc1 -6.85%
Cc1cc(C)n2c(Nc3ccc4c(c3)OCCO4)c(-c3ccc(Cl)cc3)nc2n1 3.72%
COC(=O)c1cc(S(=O)(=O)N2CCN(c3ccc(OC)cc3)CC2)c[nH]1 -20.8%
CCn1c(=O)c2cc(C(=O)NCCCOC)sc2c2ccccc21 -16.6%
Cc1cc(C)n(-c2nc3ccccc3nc2Nc2ccc(Cl)cc2Cl)n1 -13.6%
COc1ccc(CNC(=O)CCC2N=C3c4ccccc4N=C(SCc4cccc(F)c4)N3C2=O)cc1 (stereo not drawn) 0%
